The labels stand for the following.
T1: sIL-6R (soluble IL-6 receptor; SBH Sciences) (human, UniProt P08887 20-365)
T1 construct: also called human IL-6R
T1 sequence: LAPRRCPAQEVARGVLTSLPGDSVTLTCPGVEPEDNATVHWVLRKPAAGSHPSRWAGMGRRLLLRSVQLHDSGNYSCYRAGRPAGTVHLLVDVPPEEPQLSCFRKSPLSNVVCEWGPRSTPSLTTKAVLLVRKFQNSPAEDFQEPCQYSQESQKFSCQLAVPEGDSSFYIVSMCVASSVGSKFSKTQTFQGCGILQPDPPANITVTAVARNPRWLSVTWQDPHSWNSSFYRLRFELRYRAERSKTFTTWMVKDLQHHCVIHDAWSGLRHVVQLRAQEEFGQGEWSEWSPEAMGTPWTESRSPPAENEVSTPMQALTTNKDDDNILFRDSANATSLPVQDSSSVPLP

T2: IL-6 receptor on DS-1 cells (ATCC CRL 11102) (UniProt P08887 20-468, limits assumed)
T2 sequence (looked up): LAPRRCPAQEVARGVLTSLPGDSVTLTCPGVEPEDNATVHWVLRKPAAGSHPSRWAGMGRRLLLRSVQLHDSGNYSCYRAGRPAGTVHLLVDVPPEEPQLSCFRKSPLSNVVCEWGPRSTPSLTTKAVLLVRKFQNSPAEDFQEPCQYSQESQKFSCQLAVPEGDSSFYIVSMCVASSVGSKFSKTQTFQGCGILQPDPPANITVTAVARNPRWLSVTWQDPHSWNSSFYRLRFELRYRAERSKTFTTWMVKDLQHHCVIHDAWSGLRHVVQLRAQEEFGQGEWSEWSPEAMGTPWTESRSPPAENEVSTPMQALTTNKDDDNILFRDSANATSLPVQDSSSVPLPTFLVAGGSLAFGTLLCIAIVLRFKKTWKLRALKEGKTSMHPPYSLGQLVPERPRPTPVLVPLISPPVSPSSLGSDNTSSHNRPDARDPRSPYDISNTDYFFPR

B1: 1# (antibody, human IgG1, kappa)
heavy: QVQLQESGPGLVRPSQTLSLTCTVSGYSITSDHAWSWVRQPPGRGLEWIGYISYSGITTYNPSLKSRVTMLRDTSKNQFSLRLSSVTAADTAVYYCARSLARITAMDYWGQGSLVTVSS[letters of human IgG1 constant region not shown]
light: DIQMTQSPSSLSASVGDRVTITCRASQDISSYLNWYQQKPGKAPKLLIYYTSRLHSGVPSRFSGSGSGTDFTFTISSLQPEDIATYYCQQGNTLPYTFGQGTKVEIKRTVAAPSVFIFPPSDEQLKSGTASVVCLLNNFYPREAKVQWKVDNALQSGNSQESVTEQDSKDSTYSLSSTLTLSKADYEKHKVYACEVTHQGLSSPVTKSFNRGEC
notes: also called Sample # 1
B2: 6# (antibody, human IgG1, kappa)
heavy: QVQLQESGPGLVRPSQTLSLTCTVSGYSITSDHAWSWVRQPPGRGLEWIGYISYSGITTYNPSLKSRVTMLRDTSKNQFSLRLSSVTAADTAVYYCARSLARITAMDYWGQGSLVTVSA[letters of about 350 residues with a human IgG1 Fc not shown]
light: B1 light
notes: also called Sample # 6
B3: 29# (antibody, human IgG1, kappa)
heavy: B1 heavy with Y51F, I57M, S99C
light: B1 light
notes: also called Sample # 29
B4: 61# (antibody, human IgG1, kappa)
heavy: B1 heavy with Y51F, I57M, T58I, S99C, T116I
light: B1 light
notes: also called Sample # 61
B5: 58# (antibody, human IgG1, kappa)
heavy: B1 heavy with Y51F, I57M, S99C
light: B1 light
notes: also called Sample # 58
B6: 57# (antibody, human IgG1, kappa)
heavy: B1 heavy with Y51F, I57M, T58I, S99C
light: B1 light
notes: also called Sample # 57
B7: 54# (antibody, human IgG1, kappa)
heavy: B1 heavy with Y51F, I57M, S99C, T116I
light: B1 light
notes: also called Sample # 54

Positions count from the first letter of the chain named.

The first test deals with T1, sIL-6R (soluble IL-6 receptor; SBH …). The test can be described thus: SPR (BIAcore 3000), antibody on chip, sIL-6R analyte, 25 C. Here is the method: (§1) All SPR measurements were performed on a BIAcore 3000 instrument (GE Biosciences, Piscataway, N.J.). BIAcore Software-BIAcore 3000 Control Software V3.2 was used for the operation and control of the BIAcore 3000 instrument. BiaEvaluation Software V4.1 was used for the analysis of SPR data from the BIAcore 3000 instrument and data was plotted using Graph Pad Prism Software Version 5. […] The indicated antibodies were used as the ligand for the construction of the reference channel of the chip. […] Each sample was injected for 3 min at a flow rate of 30 μL/min to allow for binding to chip-bound antibody. Next, binding buffer without analyte was sent over the chip at the same flow rate to allow for dissociation of bound analyte. After 500s, remaining bound analyte was removed by injecting regeneration solution (1M Formic acid). Data was analyzed by using the Kinetics Wizard and the manual fitting programs that are both included with the BiaEvaluation Software V4.1.
A general note: Surface plasmon resonance follows binding to a sensor surface in real time, without labels.
In the case of B1, the dissociation constant Kd (usually the constant that tells how readily two partners part at equilibrium) is 0.413 nM; the “Relative Affinity” value is 3.2 fold vs 25 (Tocilizumab); the koff (commonly the first-order rate constant of dissociation) stood at 0.000101 s⁻¹; the kon – broadly, a measure of how fast the partners come together – came to 244000 M⁻¹ s⁻¹.

Consider B2, for which the affinity, expressed as Kd, was 0.267 nM; the “Relative Affinity” value was 5 fold vs 25 (Tocilizumab); the koff amounted to 6.22e-05 s⁻¹; the on-rate (kon) was found to be 233000 M⁻¹ s⁻¹.

Take B3: binding was characterised by a dissociation constant (Kd) of 0.0957 nM, the “Relative Affinity” value was 14 fold vs 25 (Tocilizumab), the koff came to 3.99e-05 s⁻¹ and the kon was 417000 M⁻¹ s⁻¹.

For a further test the target is unchanged. The test is described as above. This is another data set of the same source. The method, then: as §1
Take B1: binding was put at a Kd of 0.295 nM, the “Relative Affinity” value is 5.8 fold vs 25 (Tocilizumab), the koff is 6.76e-05 s⁻¹ and the kon amounted to 229000 M⁻¹ s⁻¹.

As for B4, the Kd came out at 0.0544 nM, the “Relative Affinity” value is 52.4 fold vs 25 (Tocilizumab), the koff is 1.29e-05 s⁻¹ and the kon turned out to be 238000 M⁻¹ s⁻¹.

As for B5, binding was put at a Kd of 0.103 nM, the “Relative Affinity” value is 27.7 fold vs 25 (Tocilizumab), the dissociation rate constant (koff) was found to be 2.67e-05 s⁻¹ and the kon turned out to be 258000 M⁻¹ s⁻¹.

B2: the Kd is 0.37 nM, the “Relative Affinity” value was 4.6 fold vs 25 (Tocilizumab), the dissociation rate constant (koff) was 8.1e-05 s⁻¹ and the on-rate constant (kon) is 219000 M⁻¹ s⁻¹.

In the case of B6, the Kd came to 0.0984 nM, the “Relative Affinity” value is 29 fold vs 25 (Tocilizumab), the koff was 2.41e-05 s⁻¹ and the kon was 245000 M⁻¹ s⁻¹.

For B7, the Kd was 0.0697 nM, the “Relative Affinity” value is 45.3 fold vs 25 (Tocilizumab), the koff stood at 1.39e-05 s⁻¹ and the kon is 199000 M⁻¹ s⁻¹.

Turning to B3, the Kd stood at 0.122 nM, the “Relative Affinity” value is 14 fold vs 25 (Tocilizumab), the koff amounted to 5.37e-05 s⁻¹ and the kon amounted to 440000 M⁻¹ s⁻¹.

The target of the next test is T2, IL-6 receptor on DS-1 cells (ATCC CRL …). The test can be described thus: cell-based or functional assay.
Turning to B5, the “IC50 (µg/ml), inhibition of DS-1 cell proliferation, MTS assay, IL6 2 ng/mL” value came out at 0.0697 µg/mL.

With B6, the “IC50 (µg/ml), inhibition of DS-1 cell proliferation, MTS assay, IL6 2 ng/mL” value was 0.0638 µg/mL.

The values are drawn from US20190315854A1 (BEIJING VDJBIO, published 2019).
